{"source": "the supplement of paper PMC11417369", "note": "± gives the standard deviation of the averaged measurements. This is one part of the list.", "data": [{"test_system": "PfAP2-EXP AP2 domain (GST-tagged)", "assay": "gcPBM binding intensity (ln(normalized median fluorescence intensity)); higher = stronger DNA binding", "procedure,_shortened": "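GST-fused DNA-binding domains of P. falciparum, expressed in E. coli, were applied at about 25 μg on average for 1 h to an Agilent 4 × 180k array of primer-extended double-stranded 36-bp intergenic genomic probes and negative controls. Binding intensity is the highest Masliner-normalised natural-log median intensity across replicate spots of either probe orientation, measured with Alexa488 anti-GST antibody and a 488 nm scan.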", "values": [{"sequence": "ATATATATATATAATGCACACATTATGAATTATGTA [CACACA_site3384]", "gcPBM binding intensity (ln)": "9.98 ± 0.26"}, {"sequence": "AAACAAAATGGTAACACACACATATATATATATATA [CACACA_site1939]", "gcPBM binding intensity (ln)": "10.1 ± 0.62"}, {"sequence": "AGGTCATACATAAAATGTACATATATATAAATATAT [XGTACX_site7147]", "gcPBM binding intensity (ln)": "8.55 ± 0.49"}, {"sequence": "TGAACACCCAAATACACACACTCAAAAAAAAAAAAG [CACACA_site5467]", "gcPBM binding intensity (ln)": "8.39 ± 0.53"}, {"sequence": "ACAAGAATACACCACGCACACACACTAGAGAAAAAA [CACACA_site9276]", "gcPBM binding intensity (ln)": "8.66 ± 0.53"}, {"sequence": "AATTAATTTATTTTATAAATAGTTAGATCGTCATAA [GTGCAC_negctrl_site660]", "gcPBM binding intensity (ln)": "8.27 ± 0.47"}, {"sequence": "ATTTCATTAAAGATTACATGCAATTCTATATTATTT [TGCATGCA_site260]", "gcPBM binding intensity (ln)": "8.79 ± 0.16"}, {"sequence": "AAAACACGCGGACACACACACACACGCCCACATATA [CACACA_site7105]", "gcPBM binding intensity (ln)": "8.94 ± 0.27"}, {"sequence": "AATTGCTCGATATATGCACACAGTTTTGTTATTTTT [CACACA_site8465]", "gcPBM binding intensity (ln)": "8.94 ± 0.36"}, {"sequence": "AACATAAATTACTTTTTACACACTAATATAAAATAC [CACACA_site8297]", "gcPBM binding intensity (ln)": "8.51 ± 0.2"}, {"sequence": "ACTTTCAAGGATGTACGTACATATGTATTTTATAAC [XGTACX_site6714]", "gcPBM binding intensity (ln)": "8.88 ± 0.28"}, {"sequence": "TCATGTAACCATTCATGTACTCAAAAAAAAAAAAAA [XGTACX_site1027]", "gcPBM binding intensity (ln)": "8.22 ± 0.44"}, {"sequence": "TTTTTTATGATTAACACACACACAAAAAAAAAAAAA [CACACA_site4130]", "gcPBM binding intensity (ln)": "8.36 ± 0.57"}, {"sequence": "AAATGAAAGAACAGCACACATATATATTATATATAA [CACACA_site2002]", "gcPBM binding intensity (ln)": "8.53 ± 0.64"}, {"sequence": "TTTTATATATATATATATATATATATATATGTATAT [CACACA_negctrl_site173]", "gcPBM binding intensity (ln)": "8.97 ± 0.014"}, {"sequence": "AAAAAAAAAACAAATACACACGCACCCAAAAAAAAA [CACACA_site8166]", "gcPBM binding intensity (ln)": "8.72 ± 0.3"}, {"sequence": "AACATATTTTTTCTTAAACACACACCGATATATATA [CACACA_site8919]", "gcPBM binding intensity (ln)": "8.62 ± 0.3"}, {"sequence": "AATATATATTTCTAAGATAAAACCCAAGGATAAAAA [CACACA_negctrl_site735]", "gcPBM binding intensity (ln)": "8.53 ± 0.58"}, {"sequence": "TCTGTAAATATGTATACACACATATCTGATCAATAT [CACACA_site5743]", "gcPBM binding intensity (ln)": "8.76 ± 0.39"}, {"sequence": "AATGGGTTAGCACATACACACCAATATATTATAGAT [CACACA_site7444]", "gcPBM binding intensity (ln)": "8.65 ± 0.57"}, {"sequence": "GCAAAATTTCCTAAGGTGCTTTTATTTTACACCGTT [GTGCAC_site9923]", "gcPBM binding intensity (ln)": "8.82 ± 0.29"}, {"sequence": "CTTTTATTGCTCTATATGCACACCTTAATTCTTCAT [CACACA_site2195]", "gcPBM binding intensity (ln)": "9.11 ± 0.33"}, {"sequence": "AAAACCTAAAAGTCTTAAATTTTAAATATACCTACA [GTGCAC_negctrl_site492]", "gcPBM binding intensity (ln)": "8.29 ± 0.35"}, {"sequence": "TTTATTACCATATTTTGTACACACATCTTTATCTCA [XGTACX_site6842]", "gcPBM binding intensity (ln)": "8.99 ± 0.51"}, {"sequence": "ATATAAATGATATGTACACACATTTATATTTATAAA [CACACA_site7600]", "gcPBM binding intensity (ln)": "8.47 ± 0.32"}, {"sequence": "ACATTGACATGTCGAAGTACTCAAGAAGCATACAAT [XGTACX_site3948]", "gcPBM binding intensity (ln)": "8.86 ± 0.42"}, {"sequence": "ATTAAAATGGTATGTGCGCACATAATATATATATGT [GTGCAC_site9572]", "gcPBM binding intensity (ln)": "9.12 ± 0.39"}, {"sequence": "ACTCTATACATCTAATGTACATGGAAAAAAAAATTC [XGTACX_site733]", "gcPBM binding intensity (ln)": "8.86 ± 0.39"}, {"sequence": "TTCTTACATAAAATATCACACACATAAAAAAACAAT [CACACA_site8576]", "gcPBM binding intensity (ln)": "9 ± 0.33"}, {"sequence": "GTAATAAGAATTATAGTGCAATGTAATACATTTATA", "gcPBM binding intensity (ln)": "8.47 ± 0.13"}, {"sequence": "TGGAAAATTATTAACACACACATATAAATATATATA [CACACA_site46]", "gcPBM binding intensity (ln)": "8.4 ± 0.45"}, {"sequence": "AATACAACATAATGAAGTACTGTATTTTATATTACT [XGTACX_site4885]", "gcPBM binding intensity (ln)": "8.35 ± 0.38"}, {"sequence": "TAATTTGAACGGTACAGTACTCTTTTTCTTTTTCAT [XGTACX_site5534]", "gcPBM binding intensity (ln)": "8.55 ± 0.42"}, {"sequence": "ATATATTTTTTCAATTGTACGTTTTAATAATATTTA [XGTACX_site2130]", "gcPBM binding intensity (ln)": "8.88 ± 0.42"}, {"sequence": "ATGAAATCTTTAGAATATAGATGATGTTATTTAATT [XGTACX_negctrl_site511]", "gcPBM binding intensity (ln)": "8.11 ± 0.46"}, {"sequence": "TTTCTTTGAATAAATACACACGAGAAATGAAAGTAG [CACACA_site8490]", "gcPBM binding intensity (ln)": "9.13 ± 0.4"}, {"sequence": "TAAAGGAGCCTATGAACACACACATGTACTTATATT [CACACA_site9351]", "gcPBM binding intensity (ln)": "8.56 ± 0.4"}, {"sequence": "AATTGTTTGTTTGGGTGTACATGGTTCTATATAAAT [XGTACX_site7940]", "gcPBM binding intensity (ln)": "9.11 ± 0.38"}, {"sequence": "AATAAAATATAAACATTATATATATATATATATATA [GTGCAC_negctrl_site58]", "gcPBM binding intensity (ln)": "10.3 ± 0.38"}, {"sequence": "ATTTTTTCTTTTTTTTTTCCGTTTTTTTGGACATTT [CACACA_negctrl_site1174]", "gcPBM binding intensity (ln)": "8.52 ± 0.45"}, {"sequence": "AAATTAAACAATAAATGTACATATATATTTGTATAT [XGTACX_site1092]", "gcPBM binding intensity (ln)": "8.53 ± 0.47"}, {"sequence": "ATAAAAAATAAATAAGGTACAGAACATTTATACATT [XGTACX_site1783]", "gcPBM binding intensity (ln)": "8.74 ± 0.36"}, {"sequence": "AACAAGGTATTAGGGTGTACTATATATATTTATATT [XGTACX_site7776]", "gcPBM binding intensity (ln)": "8.51 ± 0.37"}, {"sequence": "CTTTTTTATTTTTCAACACACATAATAAATTTCTAT [CACACA_site1037]", "gcPBM binding intensity (ln)": "8.62 ± 0.3"}]}]}
